Test results published in PubChem BioAssay (NCI).
Where “and” joins values, the source holds several entries; their conditions need not be identical. Identical values can stand only once.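 Following 48 hours of exposure in 96-well plates, responses at five concentrations were used to interpolate endpoints linearly. GI50: concentration for 50% inhibition of growth. TGI: concentration producing complete growth inhibition.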

System: NCI-H322M lung
Test: inhibition of tumour cell growth, NCI panel, 48 h

| SMILES | GI50 | TGI |
| --- | --- | --- |
| COc1cc(C2SCC(=O)N2c2ncc(C)s2)cc(OC)c1OC (configuration not stated) | 33.2 µM | > 50 µM |
| CC1(C)OC(=O)N(c2ccccc2)C12C=Cc1cccc([N+](=O)[O-])c1O2 (configuration not stated) | – | > 100 µM |
| CCOC(=O)C1=NN(c2ccc([N+](=O)[O-])cc2)[C@@]2(C)C[C@]3(c4ccccc4)N(c4ccc([N+](=O)[O-])cc4)N=C(C(=O)OCC)N3c3ccccc3N12 | – | > 100 µM |
| COC(O)C(=O)c1ccc2c(c1)CC1(C2)Cc2cc3c(cc2C1=O)CCC3 (configuration not stated) | – | 34.6 µM |
| CC(C)N=C(N)NC#N | – | > 100 µM |
| CC1SCc2nc3ccccc3n21 (configuration not stated) | – | > 100 µM |
| CCOC(=O)c1cc2/c(=C\c3ccc(N(C)C)cc3)c3ccccc3n2[n+]1C | – | 15 µM |
| COc1cc(N(C)C)c(OC)cc1/C=C\c1ccnc2ccccc12 | – | > 10 µM |
| CC(C)(C)c1cc(-n2c(-c3ccc(Cl)cc3)nc3cc(C(=O)Nc4ccc(Cl)cc4)ccc32)n[nH]1 | 40.5 µM | > 100 µM |
| O=C(O)CCC(N=Cc1nc(-c2ccccc2)oc1O)C(=O)O (configuration not stated) | – | > 100 µM |
| C/C(CC(=O)Nc1ccc(C)c(C)c1)=N\NC(N)=O | – | > 100 µM |
| Oc1ccc(C(c2ccc(O)cc2)c2ccc(O)cc2)cc1 | – | 57 µM |
| Cc1nc(-c2cn3c(n2)-c2ccc(-c4cnn(C(C)(C)C(N)=O)c4)cc2OCC3)n(C(C)C)n1 | 0.116 µM and 0.117 µM | 11.4 µM and > 9.65 µM |
| CCC[CH2][Sn]1([CH2]CCC)[O]CC(CN(C)Cc2ccccc2)[O]1 (configuration not stated) | 16.6 µM | 30.5 µM |
| C/C=C(\C)C(O)C(C)C(O)C/C=C(C)/C=C(\C)C/C(C)=C/C/C=C(\C)C(O)C(C)c1ccc(CCC)c(=O)o1 (configuration not stated) | – | 46.9 µM |
| CC(C)NC(=O)OCc1c(CO)c2c(n1C)-c1ccccc1CC2 | – | > 100 µM |
| CC(=O)OCC1OC(Nn2c(=O)[nH]c3ccccc3c2=O)C(OC(C)=O)C(OC(C)=O)C1OC(C)=O (configuration not stated) | – | > 100 µM |
| COc1c2ccoc2c(OC)c2oc(=O)ccc12 | – | > 100 µM |
| NCCCC[C@H](N)C(=O)Nc1ccc(-c2nc3ccccc3s2)cc1 | – | 73.6 µM |
| CC(=O)OCC1OC(n2c(-c3ccccc3)c(C(C)=O)c(-c3cccc4ccccc34)c(C#N)c2=S)C(OC(C)=O)C(OC(C)=O)C1OC(C)=O (configuration not stated) | – | > 100 µM |
| CC12CCC3(OCCO3)C(OC(=O)c3ccccc3)=C1CCC21OCCO1 (configuration not stated) | – | > 100 µM |
| Fc1ccc2c(c1)c(-c1nc(-c3c[nH]c4ncccc34)cs1)cn2CCCCN1CCCCC1 | 1.61 µM | 2.99 µM |
| O=Nc1ccc(NO)c2ccccc12 | 18.2 µM | 35.5 µM |

| SMILES | GI50 | TGI |
| --- | --- | --- |
| COC(=O)c1cc(C(=CCC[C@H]2CC[C@@]3(C)C(CCC4C3CC[C@@]3(C)C4CC[C@@H]3C(C)CCCC(C)C)C2)c2cc(Cl)c(O)c(C(=O)OC)c2)cc(Cl)c1O (some centres not stated) | – | > 10 µM |
| Cc1cc(Cc2cc(C)c(NC(=O)C(=O)C3CCC4=C(SC5C=CC=CC5N4)C3=O)c(C(C)C)c2)cc(C(C)C)c1NC(=O)C(=O)C1CCC2=C(SC3C=CC=CC3N2)C1=O (configuration not stated) | – | > 100 µM |
| CC(=O)OC[C@@H](COC(=O)/C=C/c1ccc(O)cc1)OC1OC(CO)C(O)C(O)C1O (some centres not stated) | – | > 100 µM |
| CN(C)C(c1ccccc1)C1COC2Cc3ccccc3C1O2 (configuration not stated) | – | > 100 µM |
| O=C(c1ccccc1)c1ccc2[nH]c(-c3c(Cl)c(Cl)c(Cl)c(Cl)c3C(=O)N/N=C/c3cccc(Oc4ccccc4)c3)nc2c1 | – | > 100 µM |
| CC(C)O/N=C/c1cc(NC(=S)OC(C)C)ccc1Cl | – | > 100 µM |
| O=c1[nH]nc(-c2ccccc2)n1/N=C/c1cccs1 | – | > 100 µM |
| CCC(=C/[C@H](C)C/C=C/C(C)=C/[C@@H](C)C(=O)[C@@H](C)[C@H](O)[C@@H](C)CC)/C=C/[C@@H]1OC(=O)C=C[C@H]1C | < 0.01 µM | 3.01 µM |
| C[C@@]12CCC[C@@](C)(C(=O)O)C1CC[C@]13C[C@@](O)(CO)[C@](O)(CCC12)C3 (some centres not stated) | > 100 µM | > 100 µM |
| NC(=O)NCCCC(NC(=O)OCCCCCCn1ccc(=O)[nH]c1=O)C(=O)O (configuration not stated) | – | > 100 µM |
| COC1CC(COCc2ccccc2)CC(OC)O1 (configuration not stated) | – | > 100 µM |
| Cc1csc(/C=C/C(=O)c2nnn(-c3ccnc4c(C(F)(F)F)cccc34)c2C)c1 | 62 µM | > 100 µM |
| CC(Nc1ccc(S(=O)(=O)N=C(N)N)cc1)c1c2ccccc2nc2ccccc12 (configuration not stated) | – | > 100 µM |
| O=[N+]([O-])C(=C(N1CCOCC1)N1CCOCC1)/C(Cl)=C(\Cl)Br | – | > 100 µM |
| Cc1ccc(S(=O)(=O)NC2(C=O)CCCC3CCCCC32)cc1 (configuration not stated) | – | > 100 µM |
| COc1cc(C(=O)N2CCN(c3ncnc4ccccc34)CC2)c(N)cc1OCc1ccccc1 | 17.7 µM | 45.7 µM |
| COc1cc(-c2cc(=O)c3c(O)c(CC=C(C)C)c(O)cc3o2)ccc1O | – | > 50 µM |
| Cc1cc(N2CCOCC2)nc(N[C@@H]2CCC[C@H](Nc3ccnc4cc(Cl)ccc34)C2)n1 | 2.24 µM | 6.29 µM |
| CCOC(=O)C1c2[nH]c3ccccc3c2CCN1C(=O)c1ccc(OC)o1 (configuration not stated) | – | > 10 µM |
| NC(=O)/N=C1/CCC2C3CCCC2C13 | – | > 100 µM |
| CCOC(=O)N1CCC(=O)C(CNC23CC4CC(CC(C4)C2)C3)C1 (configuration not stated) | – | > 100 µM |
| C/C1=C/C(=O)O[C@@H]2C[C@@H](CC[C@H](C)/C=C\C=C\CC1)O[C@@](O)([C@@H]1CSC(=O)N1)C2 | – | > 10 µM |
| O=c1[nH]nc(Cc2c[nH]c3ccccc23)o1 | – | > 100 µM |

| SMILES | GI50 | TGI |
| --- | --- | --- |
| [N-]=[N+]=NC(c1cn(C2CC(O)C(CO)O2)c(=O)[nH]c1=O)C(Cl)I (configuration not stated) | – | > 100 µM |
| CC(C)=CCC[C@](C)(O)[C@H]1CC[C@]2(C)[C@@H]1CC[C@@H]1[C@@]3(C)CC/C(=N/O)C(C)(C)[C@@H]3CC[C@]12C | 22.5 µM | > 100 µM |
| Oc1ccc2ccccc2c1N=Nc1ccsc1 | – | > 100 µM |
| S=C(Nc1ccc(-c2nc3ccccc3[nH]2)cc1)Nc1ccc(-c2nc3ccccc3[nH]2)cc1 | > 100 µM | > 100 µM |
| COC(=O)C(C(=O)C(=O)Nc1ccc([N+](=O)[O-])cc1[N+](=O)[O-])c1nc2ccc(Cl)cc2[nH]c1=O (configuration not stated) | – | > 100 µM |
| Cc1nc2ccccc2c(/C=C/c2ccc(Cl)cc2)c1C(=O)/C=C/c1ccc(C(F)(F)F)cc1 | 1.38 µM | 2.69 µM |
| O=C1CSC(c2ccccc2[N+](=O)[O-])N1c1ccc(-c2ccc(-n3c(-c4ccccc4)nc4ccccc4c3=O)cc2)cc1 (configuration not stated) | – | > 100 µM |
| CC(=O)OC(C)(C)/C(C)=C/C(=O)O[C@H]1C(=O)O[C@@H]2C[C@H]3[C@H](C)C(=O)C(O[C@@H]4O[C@H](CO)[C@@H](O)[C@H](O)[C@H]4O)=C[C@]3(C)[C@H]3[C@@H](O)[C@H](O)[C@@]4(C(=O)O)OC[C@]32[C@@H]14 | > 100 µM | > 100 µM |
| O=C(CN1CCOCC1)c1ccc2c(c1)oc(=O)n2CCN1CCOCC1 | – | > 100 µM |
| Oc1ccc(-c2nc3ccccc3s2)cc1CN(Cc1ccccn1)Cc1ccccn1 | 0.561 µM | 31.3 µM |
| COc1cc(NCCCN=C(N)NC(N)=NC(C)C)c2ncccc2c1 | 2.87 µM | 58.5 µM |
| CC1(C)Cc2nc3c(cc2C(=O)C1C=N/C(C#N)=C(\N)C#N)C(=O)C(C=N/C(C#N)=C(\N)C#N)C(C)(C)C3 (configuration not stated) | – | 9.79 µM |
| O=C(Nc1ccncc1)C(=O)c1cn(S(=O)(=O)c2ccc(Cl)cc2)c2ccccc12 | 55.6 µM | > 100 µM |
| COc1ccccc1C1ON=C(c2ccc([N+](=O)[O-])cc2)N1C12CC3CC(CC(C3)C1)C2 (configuration not stated) | – | > 100 µM |
| Cc1cc(/C=C/c2cc[n+](C)c3ccccc23)c(O)c2ncccc12 | – | 11.5 µM |
| O=C(Cc1ccc(F)c(F)c1)Nc1cc(C2(C(F)(F)F)CC2)nn1Cc1ccccc1 | 3.75 µM | > 15 µM |
| CC(C)([NH-])CO.CC(C)([NH-])CO.[Cl][Cd][Cl] | > 100 µM | > 100 µM |
| Cn1cnc([N+](=O)[O-])c1Sc1nc(N)nc2c1ncn2C1CC(O)C(CO)O1 (configuration not stated) | – | > 100 µM |
| CN(Cc1ccccc1)c1ccc(CO)c(Cl)c1 | 9.25 µM | 66.5 µM |
| S=C1CCSc2c(ccc3ccccc23)N1 | – | > 100 µM |
| COc1cc(C2c3cc4c(cc3OC(NNS(=O)(=O)c3ccc(C)cc3)C2C)OCO4)cc(OC)c1O (configuration not stated) | – | > 100 µM |
| Cn1cnc([N+](=O)[O-])c1Sc1nccn1-c1cccc2ccccc12 | – | 68.9 µM |
| COc1ccc(/C=C2\CCS(=O)(=O)c3ccccc3C2=O)cc1 | – | 63.3 µM |

| SMILES | GI50 | TGI |
| --- | --- | --- |
| Cc1c2c(c(O)c3c(O)cccc13)C(=O)C1(O)C(O)=C(C(=O)NCNc3ccc(C(N)=O)cn3)C(=O)C(N(C)C)C1C2 (configuration not stated) | – | > 100 µM |
| NCC1OC(n2cnc3c(N)ncnc32)CC1O (configuration not stated) | – | > 100 µM |
| COc1cc(/C=N/n2c(-c3ccccc3)nn(C(C)=O)c2=O)cc(OC)c1OC | – | > 62 µM |
| NCCCCCCCn1c2c(c3ccccc3c1=O)C(=O)c1ccccc1-2 | 1.98 µM | 3.86 µM |
| CCC/C(=N\NC(=S)N1CC2CCC(CC2)C1)c1ccccn1 | 0.0922 µM | 1.81 µM and 1.48 µM |
| O=C1c2ccccc2-c2nnc3c(c21)-c1ccccc1C3 | – | > 100 µM |
| CC(=O)c1c(C)[nH]c(-c2nc3ccc(N4CCN(C)CC4)cc3[nH]2)c1-c1ccc(N(C)C)cc1 | 1.35 µM | > 66.3 µM |
| N=c1ccn(O)cc1/C=C1/C(=O)Nc2ccccc21 | > 100 µM | > 100 µM |
| CCN(CC)CCCNCc1cc(-c2ccccc2)nc2ccccc12 | 30.3 µM | > 100 µM |
| COC1C(O)C(n2ncc3c(SC)nc(SC)nc32)OC1C(O)CO (configuration not stated) | – | > 100 µM |
| O=C(NCCCO)c1cc(Cl)ccc1O | 6.45 µM | 30.6 µM |
| Nc1c(C(=O)Nc2cccc(F)c2)sc2nc3c(cc12)C(=O)CCC3 | 0.569 µM | > 100 µM |
| C[n+]1c2cc(N)ccc2cc2ccc(N)cc21 | 1.59 µM [middle of 4 runs] | 8.75 µM [middle of 4 runs] |
| CC1=C(c2ccccc2)NC(=S)C(C)C(c2ccccc2)=N1 (configuration not stated) | – | > 100 µM |
| N#CC(=N)c1ncn(-c2ccc(N)cc2)c1N | – | > 100 µM |
| COC(=O)C(C(=O)OC)C1CCCC(=O)C1 (configuration not stated) | – | > 100 µM |
| CSc1nc(NC2OC(COC(C)=O)C(OC(C)=O)C(OC(C)=O)C2OC(C)=O)c2c(n1)OCC2=O (configuration not stated) | – | > 100 µM |
| CC(=O)C1=C(O)C=C2Oc3c(C(=O)/C=C/c4c(Cl)cccc4Cl)c(O)c(C)c(O)c3[C@]2(C)C1=O | 0.938 µM | 5.4 µM |
| Cc1ccc(O)c(C2=CC(c3cccc(Cl)c3)SC(N)=N2)c1 (configuration not stated) | – | > 100 µM |
| CN(C)CCNC(=O)c1cccc(N(C)C(=O)c2ccccc2)c1[N+](=O)[O-] | – | > 100 µM |
| COc1ccc(Cc2nnc(Nc3ccc(Br)cc3)[nH]c2=O)cc1OC | – | > 100 µM |
| COc1ccccc1-c1cc(=O)c2cc3c(cc2[nH]1)OCO3 | – | > 100 µM |
| CCOc1ccc(N/C(=C(/C(Cl)=C(/Cl)N2CCCCC2)[N+](=O)[O-])n2nnc3ccccc32)cc1 | – | 33.2 µM |
